{
  "source": "PubChem BioAssay AID1346428",
  "about": "(National Center for Advancing Translational Sciences (NCATS), 2018)",
  "note": "Several values for one entry are separate records, joined by “and”; a condition that tells them apart may be missing. Equal values may be shown once. Hit rate of the full screen: of about 48,000 compounds, about 1,200 (2.5%) were called active. Roughly 2% stayed inconclusive and do not appear here.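 Rule for the calls: active = activation of at least 60% and not above a set upper limit (about 1 call in 100 departs from these limits); inconclusive = activation of 40% to 60%, or above that upper limit; inactive = activation under 40%.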 This is one part of the list.",
  "data": [
    {"molecular_target": "Probable G-protein coupled receptor 32 (Homo sapiens) (UniProt O75388)", "sequence (O75388 whole entry, looked up, the tested form may be a part)": "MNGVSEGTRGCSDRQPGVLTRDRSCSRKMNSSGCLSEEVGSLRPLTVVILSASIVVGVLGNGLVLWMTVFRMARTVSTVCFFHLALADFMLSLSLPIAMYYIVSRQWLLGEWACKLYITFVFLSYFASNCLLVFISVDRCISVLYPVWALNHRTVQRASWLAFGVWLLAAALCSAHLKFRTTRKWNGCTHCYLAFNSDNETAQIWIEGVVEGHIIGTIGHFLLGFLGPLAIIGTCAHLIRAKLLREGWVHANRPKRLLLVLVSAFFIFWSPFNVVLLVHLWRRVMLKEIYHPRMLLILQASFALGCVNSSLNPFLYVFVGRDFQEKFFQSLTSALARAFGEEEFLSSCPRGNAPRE", "experiment": "qHTS for Agonists of Human Resolvin D1 Receptor DRV1", "conditions": "CHO-K1 GPR32 beta-arrestin PathHunter luminescence, 90 min; at 76.9 µM; stronger effect = higher value; zero percent set by DMSO-only wells", "summary_of_the_method": "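PathHunter enzyme-fragment complementation, CHO-K1 GPR32 stable line; 2,500 cells/well, overnight attach; cpd 90 min 37 °C 5% CO2; detection reagent 1 h RT; chemiluminescence. DMSO = EC0.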", "values": [
      {"smiles": "Cc1c(NC(=O)c2sc3c([N+](=O)[O-])cccc3c2Cl)cccc1-c1nc2ccccc2o1", "activation": "inactive: 10%"},
      {"smiles": "Cc1ccc(-c2c3c(=O)n(C)c(=O)n(C)c3c3c(C(F)(F)F)nc4ccccc4n23)cc1", "activation": "inactive: -1.39%"},
      {"smiles": "CCOC(=O)c1[nH]c(C)c(CCC(=O)Nc2ccc(N(CC)CC)cc2C)c1C", "activation": "inactive: -8.31%"},
      {"smiles": "CCS(=O)(=O)N1CC(=O)N(c2cccc(C)c2C)C(C)(C(=O)NC2CCCCC2)C1", "note": "(centres undefined)", "activation": "inactive: 6.99%"},
      {"smiles": "CCc1ccc(CNC(=O)CCN2C(=O)COc3ccccc32)cc1", "activation": "inactive: -10.8%"},
      {"smiles": "Cc1cc(C)cc(NC(=O)Cn2nnc(C(=O)Nc3cc(C)cc(C)c3)c2N)c1", "activation": "active: 83.6%"},
      {"smiles": "Cc1nc(-c2ccc(F)cc2)sc1CCNC(=O)c1ccco1", "activation": "inactive: -2.83%"},
      {"smiles": "COc1cc(NC(=O)Cn2c(C)cc3ccccc3c2=O)cc(OC)c1OC", "activation": "inactive: 27.3%"},
      {"smiles": "COc1cc(OC)cc(C(=O)Nc2c(C(=O)Nc3ccc(F)cc3)oc3ccccc23)c1", "activation": "inactive: 1.9%"},
      {"smiles": "CSc1ccc(CCNC(=O)C(C)n2c(C)c3cnn(-c4ccccc4)c(=O)c3c2C)cc1", "note": "(centres undefined)", "activation": "inactive: 13.5%"},
      {"smiles": "CCOC(=O)c1cc(-c2ccccc2)n(CCCC(=O)Nc2cccc(Cl)c2C)c1C", "activation": "inactive: -19.4%"},
      {"smiles": "[O-][n+]1cccc(CO)c1", "activation": "inactive: 8.43%"},
      {"smiles": "COC(=O)c1cc2oc(C)cc2n1CC(=O)Nc1ccc(C)cc1C", "activation": "inactive: -16.4%"},
      {"smiles": "CC(=O)Nc1cc(C(=O)NCc2ccc(F)cc2Cl)ccc1Sc1ccc(Cl)cc1", "activation": "inactive: -17.8%"},
      {"smiles": "O=C(Cn1c(=O)n(Cc2ccccc2)c(=O)c2oc3ccccc3c21)Nc1ccc(Cl)cc1", "activation": "inactive: 0.152%"},
      {"smiles": "Cc1ccc(/C=C/c2onc(C)c2S(=O)(=O)N2CCC(C(=O)N3CCOc4ccccc43)CC2)cc1", "activation": "inactive: -17.8%"},
      {"smiles": "O=C(CSc1nc2ccsc2c(=O)n1Cc1ccccc1F)NCc1ccccc1", "activation": "inactive: -13.6%"},
      {"smiles": "COc1ccc(S(=O)(=O)N(C)Cc2nc(-c3cccc(C)c3)no2)cc1", "activation": "inactive: 0.0825%"},
      {"smiles": "CCc1ccc(NC(=O)CN2C(=O)C(c3ccccc3)=NC23CCCCCC3)cc1", "activation": "inactive: -24.6%"},
      {"smiles": "CCc1ccc(NC(=O)N(Cc2ccc(C)cc2)Cc2cccn2-c2nnc(N3CCCC3=O)s2)cc1", "activation": "inactive: -20.5%"},
      {"smiles": "CCOC(=O)c1ccc(NC(=O)c2cc(=O)c3cc(CC)ccc3o2)cc1", "activation": "inactive: -12.7%"},
      {"smiles": "Cc1ccc2nc(CSc3nnc(NC(=O)COc4ccccc4)s3)cc(=O)n2c1", "activation": "inactive: -10.5%"},
      {"smiles": "CCOC(=O)c1c(C)c(-c2ccccc2)n(CC(=O)NCCc2ccc(C)cc2)c1C", "activation": "inactive: 6.54%"},
      {"smiles": "CCCCc1ccc(NC(=O)COc2cccc3c(=O)n(C)ccc23)cc1", "activation": "active: 60.2%"},
      {"smiles": "Cc1ccc(NC(=O)C2CCCN(c3nnc(-n4c(C)ccc4C)s3)C2)cc1Cl", "note": "(centres undefined)", "activation": "inactive: -26.4%"},
      {"smiles": "COc1cccc(CNC(=O)C(NS(=O)(=O)c2ccc3nc(C)sc3c2)C(C)C)c1", "note": "(centres undefined)", "activation": "inactive: 14%"},
      {"smiles": "COc1ccc(-c2cc(C(F)(F)F)nc(SCC(=O)NCCc3ccc(OC)c(OC)c3)n2)cc1", "activation": "inactive: -6.23%"},
      {"smiles": "Cc1ccc(NC(=O)N2CCC(CN3CCC(C)CC3)CC2)cc1F", "activation": "inactive: 9.13%"},
      {"smiles": "Cc1cccc(NC(=O)CSc2nnc(C)c(=O)[nH]2)c1", "activation": "inactive: -7.97%"},
      {"smiles": "Cc1ccc(C(CC(=O)Nc2cc(C)cc(C)c2)N2Cc3ccccc3C2=O)cc1", "note": "(centres undefined)", "activation": "inactive: 14.8%"},
      {"smiles": "CCN(CC)c1ccc(-n2nc3cc(C)c(NC(=O)c4ccccc4F)cc3n2)cc1", "activation": "inactive: 8.15%"},
      {"smiles": "Cc1ccccc1CN1c2ccccc2-c2nc(SCC(=O)NCCc3ccccc3)ncc2S1(=O)=O", "activation": "inactive: -3.61%"},
      {"smiles": "CCS(=O)(=O)NCC(c1ccco1)N1CCN(c2ccc(OC)cc2)CC1", "note": "(centres undefined)", "activation": "inactive: -16.1%"},
      {"smiles": "Cc1ccc(C(=O)Nc2nc3n(n2)C(c2ccccc2)C=C(c2ccccc2)N3)cc1", "note": "(centres undefined)", "activation": "inactive: 5.56%"},
      {"smiles": "Cc1ccc(NC(=O)Cn2c(C)cc(C)c(C#N)c2=O)cc1F", "activation": "inactive: -7.19%"},
      {"smiles": "Cc1cc(C)c(/C=C/c2onc(C)c2S(=O)(=O)N2CCC(C(=O)N3CCN(c4ccc(Cl)cc4)CC3)CC2)c(C)c1", "activation": "inactive: -2.82%"},
      {"smiles": "Cc1ccc(NC(=O)CCNS(=O)(=O)c2cccc3nsnc23)cc1", "activation": "inactive: -24.8%"},
      {"smiles": "COc1ccc(-c2nc3ccccc3s2)cc1NC(=O)c1cc2ccccc2o1", "activation": "inactive: -0.0462%"},
      {"smiles": "CC1CCc2onc(C(=O)N3CCN(c4cccc(C(F)(F)F)c4)CC3)c2C1", "note": "(centres undefined)", "activation": "inactive: -20.6%"},
      {"smiles": "NC(=O)OCC(COC(N)=O)c1ccccc1", "activation": "inactive: -11.8% and inactive: 12.3%"},
      {"smiles": "CN(CC(=O)Nc1ccc(F)cc1F)S(=O)(=O)c1ccc(C(=O)N2CCOCC2)s1", "activation": "inactive: -4.98%"},
      {"smiles": "CCOc1ccc(-c2nonc2NC(=O)c2ccc(C)cc2)cc1OCC", "activation": "inactive: -4.54%"},
      {"smiles": "Cc1ccnc(NS(=O)(=O)c2ccc(N)cc2)n1", "activation": "inactive: 11.2%"},
      {"smiles": "CN1CCN(C(c2cccc(Br)c2)c2sc3nc(-c4ccco4)nn3c2O)CC1", "note": "(centres undefined)", "activation": "inactive: -6.75%"},
      {"smiles": "CCC(=O)N1CCc2cc(Br)cc(S(=O)(=O)CCC(=O)NCCc3ccccc3Cl)c21", "activation": "inactive: -14.1%"},
      {"smiles": "CCOc1ccc(-c2nc(SCC(=O)Nc3ccc4c(c3)OCCO4)c(-c3ccc(F)cc3)[nH]2)cc1", "activation": "inactive: -12.5%"},
      {"smiles": "O=C(Cc1csc2ccccc12)NCc1ccccc1F", "activation": "inactive: -13.1%"},
      {"smiles": "COc1ccc(NC(=O)c2noc3c2CSc2ccccc2-3)cc1Cl", "activation": "inactive: -21.2%"},
      {"smiles": "Clc1ccc2nc(-c3ccc(Br)o3)c(Nc3ccc4c(c3)OCCO4)n2c1", "activation": "inactive: 12.9%"},
      {"smiles": "COc1cccc(OC)c1C(=O)Nc1cccc(-c2nc3cc(C)cc(C)c3o2)c1", "activation": "inactive: 0.847%"},
      {"smiles": "CC(=O)N1CCCc2cc(S(=O)(=O)N3CCN(c4ccc(F)cc4)CC3)ccc21", "activation": "inactive: -9.25%"},
      {"smiles": "CCc1cccc(-n2nnc(-c3nc(-c4cccs4)no3)c2N)c1", "activation": "inactive: 14.6%"},
      {"smiles": "O=C(Cn1nc(Cc2cccnc2)c2ccccc2c1=O)Nc1cccc(C(F)(F)F)c1", "activation": "inactive: -12%"},
      {"smiles": "CC1CCN(S(=O)(=O)c2cccc(C(=O)N(C)C3(C)CCS(=O)(=O)C3)c2)CC1", "note": "(centres undefined)", "activation": "inactive: -12.5%"}
    ]}
  ]
}
